Assay results published in PubChem BioAssay AID504706 (National Center for Advancing Translational Sciences (NCATS), 2011).
The campaign covered roughly 320,000 compounds. About 200 (0.062%) were called active. Inconclusive results, whose numbers are uncertain, are shown with a selection of clear calls. The call rests on the fitted dose curve; in most records, active means well fitted activation curve with a large enough effect; inconclusive means small, poorly fitted or top-dose-only effect; inactive means no such curve, though single readings can be large or run the other way. No potency is given beside an inconclusive call; the fits are too rough.

assay: qHTS assay for re-activators of p53 using a Luc reporter; settings: H1299 p53-A138V BP100-luciferase reporter, luminescence, 24 h; series mostly up to 92.2 µM; activity change, positive = activation: at the top concentration; further: nearly all actives have a fitted effect of over 45% in size; on activity change, positive = activation: % of control where 0% means no effect
Procedure, shortened: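 p53-null H1299 cells stably carrying temperature-sensitive p53-A138V and a BP100-luciferase reporter were pinned with compounds (4-point, 1:5 series) and held 24 hrs at 37 deg C. Luminescence was read 10 min after detection reagent.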
Potency means the concentration at half of the fitted maximal effect; tags describe the fitted curve by direction and shape.

| Structure (SMILES) | activity change, positive = activation | Potency |
| --- | --- | --- |
| O=C(NC(=S)NCCN1CCOCC1)c1ccccc1Br | inactive: 10.4% |  |
| Cc1ccc(OCCOc2cccc(Br)c2)c([N+](=O)[O-])n1 |  | inconclusive [activator, partial curve, poor fit] |
| O=C(NNC(=O)c1cc2ccccc2cc1O)Nc1ccc(Br)cc1 | inactive: -2.44% |  |
| O=C(O)C1C2CCC(O2)C1C(=O)Nc1ccccc1Br (configuration not stated) |  | inconclusive [activator, single point] |
| COc1ccccc1-c1cn(-c2ccccc2)c(=S)[nH]1 |  | inconclusive [activator, single point] |
| CCCCCCC(=O)N/N=C/c1ccco1 |  | inconclusive [activator, partial curve, poor fit] |
| CC(C)N(C)S(=O)(=O)c1ccc(NC(=O)C2=COCCO2)cc1 |  | inconclusive [activator, partial curve, poor fit] |
| CC1(C)Cc2c(cnn2-c2ccc(F)cc2)C(NC(=O)C2=NNC(=O)CC2)C1 (configuration not stated) |  | inconclusive [activator, single point] |
| COc1ccc(CN2CCC(Oc3ccc(C(=O)N4CCCCC4)cc3)CC2)cc1C |  | inconclusive [activator, full curve, poor fit] |
| Cc1oncc1C(=O)N1CCCC(CO)(Cc2ccc(F)cc2F)C1 (configuration not stated) |  | inconclusive [activator, partial curve, poor fit] |
| CCCCC[C@@H]1C=C(C(=O)O)[C@H](c2cccc(C)c2)N1S(=O)(=O)c1ccc(C)cc1 | inactive: -3.21% |  |
| CCc1ccc2c(c1)C1(NN=C(c3ccccc3)S1)C(=O)N2 (configuration not stated) |  | inconclusive [activator, partial curve, poor fit] |
| Cc1cc(C)n(-c2nnc(NC(C)(C)C)nn2)n1 |  | inconclusive [activator, partial curve, poor fit] |
| CC1CCCN(c2nc3ccccc3nc2C(C#N)S(=O)(=O)c2ccccc2)C1 (configuration not stated) |  | inconclusive [activator, single point] |
| COc1ccccc1C(=O)Nc1ccc2c(c1)nc1n2CCSC1 |  | inconclusive [activator, full curve, poor fit] |
| Cn1cc(S(=O)(=O)NC2CCCCCC2)c(=O)n(C)c1=O |  | inconclusive [activator, single point] |
| C/C(=N\NC(=O)c1cc(C(C)C)[nH]n1)c1ccco1 |  | inconclusive [activator, full curve, poor fit] |
| Cc1ccc(O)c(NC(=O)c2ccco2)c1 |  | inconclusive [activator, partial curve, poor fit] |
| COc1ccccc1Nc1nc2ccc(C)cc2cc1C#N | inactive: 0.98% |  |
| CC1(C)CC(=O)c2cc(OCC(=O)NCCN3CCOCC3)ccc2O1 | inactive: 2.75% |  |
| COc1ccc(/C=C2/CCc3ccccc3C2=O)cc1CN1CCOCC1 |  | inconclusive [activator, partial curve, poor fit] |

| Structure (SMILES) | activity change, positive = activation | Potency |
| --- | --- | --- |
| COc1cc(/C=N/NC(=O)c2nnn(-c3nonc3N)c2C(C)C)ccc1OCc1ccc(F)cc1 | inactive: 25.1% |  |
| Clc1cc(Cl)c(OCc2nc(-c3ccccn3)no2)cc1Cl |  | inconclusive [activator, partial curve, poor fit] |
| NC(=O)c1sc(=S)n2c1[nH]c(=O)c1sccc12 |  | inconclusive [activator, single point] |
| Cc1cc(C(=O)COC(=O)c2ccc(N)c([N+](=O)[O-])c2)c(C)n1-c1ccc2c(c1)OCO2 | inactive: -2.4% |  |
| CC(=O)c1cccc(NC(=O)c2ccccc2-c2ccccc2C(=O)O)c1 |  | inconclusive [activator, single point] |
| COc1cccc(/C=C/c2ccncc2)c1OC |  | inconclusive [activator, single point] |
| O=C(/C=C/Nc1ccc([N+](=O)[O-])cc1Br)c1cccc2ccccc12 |  | inconclusive [activator, full curve, poor fit] |
| CCCn1c(=O)c(C(=O)NCCc2ccc(Cl)cc2)c(O)c2ccccc21 |  | inconclusive [activator, partial curve, poor fit] |
| COc1ccc(Nc2nc(C(=O)N3CCc4cc(OC)c(OC)cc4C3)cs2)cc1 | inactive: -6.25% |  |
| O=C(/C=C/c1ccc(F)cc1)NCc1ccco1 |  | inconclusive [activator, full curve, poor fit] |
| CCOC(=O)CC(=O)CSc1nc2c(cc1C#N)CCC2 |  | inconclusive [activator, partial curve, poor fit] |
| CCCn1nnc(NC(=O)c2ccc([N+](=O)[O-])cc2Cl)n1 |  | inconclusive [activator, partial curve, poor fit] |
| CC(=O)NCCC1CCCCN1C(=O)c1cc(COc2cc(C)ccc2C)on1 (configuration not stated) |  | inconclusive [activator, partial curve, poor fit] |
| COc1ccc(C=Nc2cccnc2N)cc1 |  | inconclusive [activator, partial curve, poor fit] |
| O=C1[C@@H]2C3C=CC(O3)[C@@H]2C(=O)N1c1ccccc1 |  | inconclusive [activator, single point] |
| COc1ccc(C(=O)c2sc(NC(C)C)nc2N)cc1OC |  | inconclusive [activator, single point] |
| Cc1ccc(N(Cc2ccccc2)C(=O)c2ccc(F)cc2)cc1 | inactive: -1.25% |  |
| CC(=O)Nc1ccc(-c2csc(NCc3ccco3)n2)cc1 |  | inconclusive [activator, full curve, poor fit] |
| CC1=CC(C)(C)N=C(Nc2nc(C)c3cc(C)cc(C)c3n2)N1 |  | inconclusive [activator, single point] |
| CCC(=O)c1ccc(OCC(=O)OCC(=O)NCC2CCCO2)cc1 (configuration not stated) |  | inconclusive [activator, partial curve, poor fit] |
| Cc1cccc(C(=O)O/N=C(\N)Cc2ccc([N+](=O)[O-])cc2)c1 |  | inconclusive [activator, single point] |
